Like-named read-outs stand apart in the source and are kept apart here.
Assays:
[1] = system: WT PSV infection of U373 cells; test: microbe, parasite or virus in culture; details: Human immunodeficiency virus 1, U373 MG
[2] = system: WT PSV infection of U373 cells; details: ratio of the IC50 determined at 48 and 0 h

Structure (SMILES)	IC50 ([1]; read-out: WT IC50 at t = 0 h) [nM]	IC50 ([1]; read-out: WT IC50 at t = 48 h) [nM]	Persistence Index [2]
C#C[C@]1(CO)O[C@@H](n2cnc3c(N)nc(F)nc32)C[C@@H]1OC(C)=O [Example 1, (2R,3S,5R)-5-(6-amino-2-fluoro-9H-purin-9-yl)-2-ethynyl-2-(hydroxymethyl)tetrahydrofuran-3-yl acetate]	76	2200	37.4
C#C[C@]1(CO)O[C@@H](n2cnc3c(N)nc(F)nc32)C[C@@H]1OC(=O)CCCCCCCCCCCCCCCCCCC [Example 6, (2R,3S,5R)-5-(6-amino-2-fluoro-9H-purin-9-yl)-2-ethynyl-2-(hydroxymethyl)tetrahydrofuran-3-yl icosanoate]	410	2180	4.7
C#C[C@]1(CO)O[C@@H](n2cnc3c(N)nc(F)nc32)C[C@@H]1OC(=O)CCCCCCC/C=C\C/C=C\C/C=C\CC [Example 7, (9Z,12Z,15Z)-(2R,3S,5R)-5-(6-amino-2-fluoro-9H-purin-9-yl)-2-ethynyl-2-(hydroxymethyl)tetrahydrofuran-3-yl octadeca-9,12,15-trienoate]	5.1	127	21.4
C#C[C@]1(CO)O[C@@H](n2cnc3c(NC(=O)CCCCCCCCCCCCC)nc(F)nc32)C[C@@H]1OC(C)=O [Example 14, (2R,3S,5R)-2-ethynyl-5-(2-fluoro-6-tetradecanamido-9H-purin-9-yl)-2-(hydroxymethyl)tetrahydrofuran-3-yl acetate]	6.4	72.9	11.4
